# In the supplement of paper PMC8728848:
# The list shows a part of the results.
# Legend:
# Experiment in all cases: glycan array binding signal (z-score within array); higher = stronger binding
# Settings in all cases: glycan notation: IUPAC condensed, linker removed
# [1] = target: GalNAc3S(b1-4)[Fuc(a1-3)]GlcNAc
# How it was run: (§1)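 The binding signal is a Z-score computed within each array and averaged over linkers. Arrays of the same protein sequence at different concentrations or buffers were also averaged together. Data originate from 3228 arrays in the Consortium for Functional Glycomics database, kept only where the protein sequence was available.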
# GalNAc4S6S(b1-4)GlcNAc = target: GalNAc4S6S(b1-4)GlcNAc
# How it was run: as §1
# GalNAc6S(b1-4)GlcNAc = target: GalNAc6S(b1-4)GlcNAc
# How it was run: as §1
# Glc(a1-4)Glc = target: Glc(a1-4)Glc
# How it was run: as §1
# [2] = target: Glc(a1-4)Glc(a1-4)Glc(a1-4)Glc
# How it was run: as §1
# Glc(a1-6)Glc(a1-6)Glc = target: Glc(a1-6)Glc(a1-6)Glc
# How it was run: as §1
# [3] = target: Glc(a1-6)Glc(a1-6)Glc(a1-6)Glc
# How it was run: as §1
# Glc(b1-4)Glc = target: Glc(b1-4)Glc
# How it was run: as §1
# Glc(b1-6)Glc = target: Glc(b1-6)Glc
# How it was run: as §1
# GlcA(b1-3)Gal = target: GlcA(b1-3)Gal
# How it was run: as §1
# GlcA(b1-3)GlcNAc = target: GlcA(b1-3)GlcNAc
# How it was run: as §1
# GlcA(b1-6)Gal = target: GlcA(b1-6)Gal
# How it was run: as §1
# [4] = target: GlcA3S(b1-3)Gal(b1-4)GlcNAc(b1-2)Man
# How it was run: as §1
# [5] = target: GlcA3S(b1-3)Gal(b1-4)GlcNAc(b1-3)Gal(b1-4)Glc
# How it was run: as §1
# [6] = target: GlcNAc(a1-3)Gal(b1-4)GlcNAc
# How it was run: as §1
# [7] = target: GlcNAc(a1-4)Gal(b1-3)GlcNAc
# How it was run: as §1
# [8] = target: GlcNAc(a1-4)Gal(b1-4)GalNAc
# How it was run: as §1
# [9] = target: GlcNAc(a1-4)Gal(b1-4)GlcNAc
# How it was run: as §1
# [10] = target: GlcNAc(a1-4)Gal(b1-4)GlcNAc(b1-3)Gal(b1-4)Glc
# How it was run: as §1
# [11] = target: GlcNAc(a1-4)Gal(b1-4)GlcNAc(b1-3)Gal(b1-4)GlcNAc
# How it was run: as §1
# [12] = target: GlcNAc(a1-4)Gal(b1-4)GlcNAc(b1-3)Gal(b1-4)GlcNAc(b1-3)Gal(b1-4)GlcNAc
# How it was run: as §1
# [13] = target: GlcNAc(a1-4)Gal(b1-4)GlcNAc(b1-3)Gal(b1-4)[Fuc(a1-3)]GlcNAc(b1-3)Gal(b1-4)[Fuc(a1-3)]GlcNAc
# How it was run: as §1
# [14] = target: GlcNAc(a1-6)Gal(b1-4)GlcNAc
# How it was run: as §1
# [15] = target: GlcNAc(b1-2)Gal(b1-3)GalNAc
# How it was run: as §1
# [16] = target: GlcNAc(b1-2)Man(a1-3)[GlcNAc(b1-2)Man(a1-6)]Man(b1-4)GlcNAc(b1-4)GlcNAc
# How it was run: as §1
# [17] = target: GlcNAc(b1-2)Man(a1-3)[GlcNAc(b1-2)Man(a1-6)]Man(b1-4)GlcNAc(b1-4)[Fuc(a1-6)]GlcNAc
# How it was run: as §1
# [18] = target: GlcNAc(b1-2)Man(a1-3)[GlcNAc(b1-4)][GlcNAc(b1-2)Man(a1-6)]Man(b1-4)GlcNAc(b1-4)GlcNAc
# How it was run: as §1
# [19] = target: GlcNAc(b1-2)Man(a1-3)[GlcNAc(b1-4)][GlcNAc(b1-2)Man(a1-6)]Man(b1-4)GlcNAc(b1-4)[Fuc(a1-6)]GlcNAc
# How it was run: as §1
# [20] = target: GlcNAc(b1-2)[GlcNAc(b1-4)]Man(a1-3)[GlcNAc(b1-2)Man(a1-6)]Man(b1-4)GlcNAc(b1-4)GlcNAc
# How it was run: as §1
# [21] = target: GlcNAc(b1-2)[GlcNAc(b1-4)]Man(a1-3)[GlcNAc(b1-4)][GlcNAc(b1-2)Man(a1-6)]Man(b1-4)GlcNAc(b1-4)GlcNAc
# How it was run: as §1
# [22] = target: GlcNAc(b1-2)[GlcNAc(b1-4)]Man(a1-3)[GlcNAc(b1-4)][GlcNAc(b1-2)[GlcNAc(b1-6)]Man(a1-6)]Man(b1-4)GlcNAc(b1-4)GlcNAc
# How it was run: as §1
# [23] = target: GlcNAc(b1-2)[GlcNAc(b1-4)]Man(a1-3)[GlcNAc(b1-4)][GlcNAc(b1-2)[GlcNAc(b1-6)]Man(a1-6)]Man(b1-4)GlcNAc(b1-4)[Fuc(a1-6)]GlcNAc
# How it was run: as §1
# [24] = target: GlcNAc(b1-2)[GlcNAc(b1-6)]Man(a1-6)[GlcNAc(b1-2)Man(a1-3)]Man(b1-4)GlcNAc(b1-4)GlcNAc
# How it was run: as §1
# [25] = target: GlcNAc(b1-2)[GlcNAc(b1-6)]Man(a1-6)[GlcNAc(b1-2)Man(a1-3)]Man(b1-4)GlcNAc(b1-4)[Fuc(a1-6)]GlcNAc
# How it was run: as §1
# [26] = target: GlcNAc(b1-2)[GlcNAc(b1-6)]Man(a1-6)[GlcNAc(b1-4)][GlcNAc(b1-2)Man(a1-3)]Man(b1-4)GlcNAc(b1-4)GlcNAc
# How it was run: as §1
# GlcNAc(b1-3)Fuc = target: GlcNAc(b1-3)Fuc
# How it was run: as §1
# GlcNAc(b1-3)Gal = target: GlcNAc(b1-3)Gal
# How it was run: as §1
# [27] = target: GlcNAc(b1-3)Gal(b1-3)GalNAc
# How it was run: as §1
binder,measurement,setting,value
PX14343H-pdi-506-26-506 (Parabacteroides distasonis) (protein) QPTGTMTTDSKLTSKESALALTNSAYLKNTVFNKMTPGWGCNTILLLEYMTGKATSENSQSNYKDFQDLLVSDRSLYIEDWWQDCYAGIANCNLALQKLGEFENLDASLVNGYMAEVKFMRALYYFYLVRIFGDVPKITTVQSELGELQVSRAPVKEIYDEIIIPDLLEAEQSDLAFSDHTGRVSMGAVKALLADVYLTYAGYPLQGGKSYYAESAKRSLEVIKSNEYTLFTDYESLRLPSQNNKGEFIYQVQFSLNKRHNESVRIFLPSRSGISAYDLEYGSLIPTKEFVESFEKGDKRTEEKQYFFTNYKGHPSKFSPGAAELEFMDLNGYYIYKFFDQVAVDNTAKSDLNWSVYRYTDVLLMYAEAQVNADGTPNQQSIDIVNQIRGRAGLAPFKQTNASAFLEEVWDQRYFDLCYENKMWFDMLRTRKIRDDKSGEYVDFIGYKTNWGKVYTETQLLFPIPLSERQANPNLTQNQGY,glycan array binding signal (z-score),[1],-0.134
same,glycan array binding signal (z-score),GalNAc4S6S(b1-4)GlcNAc,-0.453
same,glycan array binding signal (z-score),GalNAc6S(b1-4)GlcNAc,0.278
same,glycan array binding signal (z-score),Glc(a1-4)Glc,-0.288
same,glycan array binding signal (z-score),[2],-0.309
same,glycan array binding signal (z-score),Glc(a1-6)Glc(a1-6)Glc,-0.388
same,glycan array binding signal (z-score),[3],-0.228
same,glycan array binding signal (z-score),Glc(b1-4)Glc,-0.416
same,glycan array binding signal (z-score),Glc(b1-6)Glc,-0.393
same,glycan array binding signal (z-score),GlcA(b1-3)Gal,-0.517
same,glycan array binding signal (z-score),GlcA(b1-3)GlcNAc,-0.297
same,glycan array binding signal (z-score),GlcA(b1-6)Gal,-0.25
same,glycan array binding signal (z-score),[4],-0.222
same,glycan array binding signal (z-score),[5],-0.433
same,glycan array binding signal (z-score),[6],-0.491
same,glycan array binding signal (z-score),[7],-0.529
same,glycan array binding signal (z-score),[8],-0.204
same,glycan array binding signal (z-score),[9],-0.26
same,glycan array binding signal (z-score),[10],-0.465
same,glycan array binding signal (z-score),[11],-0.247
same,glycan array binding signal (z-score),[12],-0.419
same,glycan array binding signal (z-score),[13],0.846
same,glycan array binding signal (z-score),[14],-0.506
same,glycan array binding signal (z-score),[15],-0.544
same,glycan array binding signal (z-score),[16],-0.515
same,glycan array binding signal (z-score),[17],-0.216
same,glycan array binding signal (z-score),[18],-0.462
same,glycan array binding signal (z-score),[19],-0.414
same,glycan array binding signal (z-score),[20],-0.368
same,glycan array binding signal (z-score),[21],-0.297
same,glycan array binding signal (z-score),[22],-0.527
same,glycan array binding signal (z-score),[23],-0.446
same,glycan array binding signal (z-score),[24],-0.19
same,glycan array binding signal (z-score),[25],-0.354
same,glycan array binding signal (z-score),[26],-0.488
same,glycan array binding signal (z-score),GlcNAc(b1-3)Fuc,-0.234
same,glycan array binding signal (z-score),GlcNAc(b1-3)Gal,-0.446
same,glycan array binding signal (z-score),[27],-0.363
